Test results taken from PubChem BioAssay AID1508642 (National Center for Advancing Translational Sciences (NCATS), 2021).
The whole screen tested about 43,000 compounds, of which about 200 (0.47%) were called active. About 12% were inconclusive and are not listed. The call rests on the fitted dose curve; in most records, active means well fitted cell-killing curve with a large enough effect; inconclusive means small, poorly fitted or top-dose-only effect, or effect the other way; inactive means flat fitted curve, though single readings scatter. The list shows a part of the results.

Experiment: Cell viability qHTS assay in S16 Pmp22-F2sN cells; further: nearly all actives have a fitted effect of over 65% in size
Settings: S16 Pmp22-F2sN Schwann cells viability, CellTiter-Glo, 24 h; series mostly up to 57.5 µM; activity change, negative = cytotoxicity: at the top concentration
Summary of the method: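 S16 Pmp22-F2sN Schwann cells (500-1,000/well) in phenol-red-free DMEM with 10% FBS received 23 nL compound by pin tool for 24 h at 37 °C. Viability was then read as CellTiter-Glo luminescence after 15 min at room temperature.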
On the % scale 0 is the no-effect control and ±100 the full control effect.

| SMILES | activity change, negative = cytotoxicity |
| --- | --- |
| CCN1C(=O)c2ccccc2Sc2ccc(NC(=O)COc3ccc(Cl)cc3)cc21 | inactive: -21.6% |
| Cc1cccc(OCC(=O)NC(Cc2c[nH]c3ccccc23)C(=O)O)c1C (stereo not drawn) | inactive: 0.291% |
| COc1ccc(CCNC(=O)C(=O)NCC(c2ccc3c(c2)OCO3)N2CCOCC2)cc1 (stereo not drawn) | inactive: -16.5% |
| CCc1nonc1NC(=O)c1oc2ccc(F)cc2c1C | inactive: 10.3% |
| O=C(Nc1cc(F)ccc1F)N1CCC(CN2CCOCC2)CC1 | inactive: -0.296% |
| COc1ccc(-n2cc(-c3ccccc3)c3c(NC4CCCCC4)ncnc32)cc1 | inactive: -22.2% |
| Cc1ccccc1C(=O)N(Cc1ccc(N(C)C)cc1)Cc1ccco1 | inactive: -6.37% |
| CN(C)c1ccc(CN(CC2CCCO2)C(=O)COc2ccccc2Cl)cc1 (stereo not drawn) | inactive: -8.65% |
| COc1ccccc1CNC(=O)Cc1c(C)c2c(cc(C)c3c(C)coc32)oc1=O | inactive: 18.3% |
| COc1ccc(N(CC(=O)NCc2ccc(F)cc2)S(=O)(=O)c2c(C)noc2C)cc1 | inactive: 2.91% |
| N#Cc1ccc(-c2cccs2)nc1SCc1c(F)cccc1Cl | inactive: -9% |
| CCCN(c1ccc(C(C)C)cc1)S(=O)(=O)c1ccc2c(c1)CCN2C(=O)CC | inactive: 0.923% |
| O=C(NC1CCCC1)c1ccc2c(c1)N(Cc1ccc(C(F)(F)F)cc1)C(=O)c1ccccc1S2 | inactive: 13.8% |
| Cc1ccccc1Cn1c(=O)n(Cc2ccc3c(c2)OCO3)c(=O)c2oc3ccccc3c21 | inactive: 10.1% |
| O=C(CCc1nc2cccnc2n1Cc1cccs1)Nc1cccc(C(F)(F)F)c1 | inactive: -15.2% |
| O=C(c1ccc(C(F)(F)F)cc1)N1CCC(c2noc(-c3ccc(S(=O)(=O)N4CCCC4)cc3)n2)CC1 | inactive: -23.5% |
| NC(=O)c1ccccc1NC(=O)C1CCCN(c2ncnc3onc(-c4ccc(F)cc4)c23)C1 (stereo not drawn) | inactive: -20.4% |
| O=C(c1cccs1)N(Cc1cccnc1)c1nc2c(Cl)cccc2s1 | inactive: -22.2% |
| COCCCNS(=O)(=O)c1cc(-c2onc(C)c2C)ccc1OC | inactive: -23.1% |
| COc1ccc(N2CCN(C(=O)CSc3n[nH]c(-c4ccccc4)n3)CC2)cc1 | inactive: 7.15% |
| COc1ccc(-c2noc(CCC(=O)N(C)c3ccccc3C)n2)cc1 | inactive: -3.82% |
| CN(C)C(=O)c1ccc(NC(=O)Cn2nnnc2-c2ccccc2F)cc1 | inactive: 1.03% |
| Cc1ccccc1NC(=O)CSc1c(C(C)C)cnc2c1c(=O)n(C)c(=O)n2C | inactive: -15.5% |
| Cc1cc(C)cc(OCC(=O)Nc2nc(-c3ccc(F)cc3)ns2)c1 | inactive: 3.75% |
| CCOc1ccccc1NC(=O)CSc1nc2ccccc2nc1N1CCOCC1 | inactive: 4.66% |
| COC(=O)c1cc(NS(=O)(=O)c2ccc3c(c2)OCCO3)ccc1Cl | inactive: 0.432% |
| COc1ccc(NC(=O)c2oc3ccc(S(=O)(=O)N4CCOCC4)cc3c2C)c(OC)c1 | inactive: 29.2% |
| COc1ccc(N2CCN(C(=O)c3cc4c(=O)n(Cc5cccnc5)ccc4nc3C)CC2)cc1 | inactive: 1.45% |
